Out of some 350,000 compounds screened, about 31,000 (8.9%) were called active. Inconclusive means that the source gave no clear call. Such entries were picked first, then a sample of the others. The call rests on the fitted dose curve; in most records, active means well fitted inhibition curve with a large enough effect; inconclusive means small, poorly fitted or top-dose-only effect; inactive means no such curve, though single readings can be large or run the other way. A potency beside an inconclusive call is a rough fit, not a confirmed value.
Each compound was assayed against Histone-lysine N-methyltransferase EHMT2 (Homo sapiens) (UniProt Q96KQ7) (assay: qHTS Assay for Inhibitors of Histone Lysine Methyltransferase G9a). Conditions: G9a H3K9 monomethylation, AlphaScreen, 2 h; activity, negative = inhibition: at 59 µM (top of the series) unless noted.
Chain of UniProt Q96KQ7 (Q96KQ7 whole entry, looked up): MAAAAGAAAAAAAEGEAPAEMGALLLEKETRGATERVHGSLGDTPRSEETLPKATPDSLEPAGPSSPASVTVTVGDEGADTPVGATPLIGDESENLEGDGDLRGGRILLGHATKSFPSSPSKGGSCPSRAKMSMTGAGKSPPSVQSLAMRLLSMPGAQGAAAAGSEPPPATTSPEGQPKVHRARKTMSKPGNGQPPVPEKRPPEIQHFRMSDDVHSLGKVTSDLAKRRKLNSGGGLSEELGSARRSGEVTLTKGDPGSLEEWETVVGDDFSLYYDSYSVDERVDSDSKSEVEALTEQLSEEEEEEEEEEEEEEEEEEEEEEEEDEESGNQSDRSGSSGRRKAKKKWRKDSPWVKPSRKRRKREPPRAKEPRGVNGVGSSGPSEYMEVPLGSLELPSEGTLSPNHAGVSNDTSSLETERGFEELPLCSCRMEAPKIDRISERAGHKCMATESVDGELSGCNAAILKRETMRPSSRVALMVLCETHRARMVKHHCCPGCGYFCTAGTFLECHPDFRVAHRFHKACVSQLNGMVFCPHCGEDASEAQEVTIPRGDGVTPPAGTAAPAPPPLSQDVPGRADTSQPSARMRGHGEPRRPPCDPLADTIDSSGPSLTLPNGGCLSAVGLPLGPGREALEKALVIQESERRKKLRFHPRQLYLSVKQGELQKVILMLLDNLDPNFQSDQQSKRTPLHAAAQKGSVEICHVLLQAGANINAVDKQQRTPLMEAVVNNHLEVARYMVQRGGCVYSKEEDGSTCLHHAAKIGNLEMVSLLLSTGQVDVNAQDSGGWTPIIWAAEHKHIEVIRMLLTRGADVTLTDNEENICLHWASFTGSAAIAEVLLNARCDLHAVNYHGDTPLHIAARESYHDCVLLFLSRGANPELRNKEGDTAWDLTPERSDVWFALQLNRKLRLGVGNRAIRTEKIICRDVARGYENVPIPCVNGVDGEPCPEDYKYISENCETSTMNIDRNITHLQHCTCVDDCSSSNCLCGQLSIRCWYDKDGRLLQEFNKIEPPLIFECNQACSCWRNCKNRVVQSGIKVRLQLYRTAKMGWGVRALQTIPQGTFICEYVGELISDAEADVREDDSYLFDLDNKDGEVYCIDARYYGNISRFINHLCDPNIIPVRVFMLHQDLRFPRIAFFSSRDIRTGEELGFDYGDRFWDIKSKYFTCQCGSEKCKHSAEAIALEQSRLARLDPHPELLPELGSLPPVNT
Procedure, shortened: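 Quantitative HTS format: methyltransferase activity on a biotin-tagged H3K9 peptide is measured by AlphaScreen, using a rabbit anti-monomethyl-H3K9 antibody with streptavidin donor and anti-IgG acceptor beads. Final levels are 20 nM enzyme, 500 nM peptide, 20 uM SAM; 2 h RT.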
For `O=c1cc(CN2CCc3ccccc32)c2ccc(O)cc2o1`, the Potency was active: 44.7 µM. With `O=C(NC1CCCCC1)C(c1ccncc1)N(C(=O)Cn1nnc(-c2cccs2)n1)C1CCCC1` (stereo not given) the Potency was active: 22.4 µM. In the case of `COCCCN1C(=O)c2ccc(C(=O)OCC(=O)N3CCN(c4ccccc4)CC3)cc2C1=O`, the Potency is reported as inconclusive: 79.4 µM [inhibitor, partial curve, poor fit]. In the case of `COc1ccc(-c2c[n+](CC(=O)N3c4ccccc4Sc4ccccc43)c3n2CCC3)cc1`, the Potency is reported as inconclusive: 79.4 µM [inhibitor, partial curve, poor fit]. With `Cc1ccc(/C=N\NC(=O)c2cncc(Br)c2)o1` the Potency was active: 50.1 µM. With `CCC(C)NC(=S)Nc1ccc(F)cc1` (stereo not given) the Potency was active: 50.1 µM. `CCOc1ccc(S(=O)(=O)N(CC(=O)Nc2ccc(OC)c(Cl)c2)c2ccccc2)cc1` was tested, and the Potency was inconclusive: 12.6 µM [inhibitor, partial curve, poor fit]. For `CC(O)Cc1cn([C@@H](CCCCN)C(=O)N2CCNCC2)nn1` (stereo not given in full), the activity, negative = inhibition was inconclusive: -69.4% [inhibitor]. In the case of `COCCN(CC(=O)Nc1cccc(C)c1C)C(=O)c1cc2c(s1)CCC2`, the Potency is reported as inconclusive: 6.31 µM [inhibitor, single point]. With `Cc1ccc(Nc2nc(CSc3nnnn3-c3ccccc3)cs2)cc1` the Potency was inconclusive: 28.2 µM [inhibitor, single point]. `COc1ccc(S(=O)(=O)Nc2nc3ccccc3nc2Nc2ccc3c(c2)OCO3)cc1` was tested, and the “activity, negative = inhibition” value was inactive: -6.05%. With `COc1ccc(OC)c(NC(=O)C2CCN(C(=O)C3CC(=O)N(c4ccc(C)cc4)C3)CC2)c1` (stereo not given) the Potency was inconclusive: 39.8 µM [inhibitor, single point]. `CCOc1ccc2nc(Cl)c(C3CC(c4ccccc4)=NN3C(=O)CCC(=O)O)cc2c1` (stereo not given) was tested, and the “activity, negative = inhibition” value was inactive: 10.8%. With `COc1ccc(CC(=O)NCC2CCCN(Cc3ccc(F)c(OC)c3)C2)cc1` (stereo not given) the “activity, negative = inhibition” value was inactive: 59.8% [at 102 µM]. For `COc1cccc(CN2CCNC(=O)C2CC(=O)N(C)C2CCOCC2)c1OC` (stereo not given), the Potency was inconclusive: 10 µM [inhibitor, partial curve]. In the case of `Cc1cccn2cc(-c3cccc(NC(=O)c4cccs4)c3)nc12`, the Potency is reported as inconclusive: 39.8 µM [inhibitor, partial curve, poor fit]. For `N#CC1(NC(=O)Cn2cc(C(F)(F)F)cc(Cl)c2=O)CCCCC1`, the “activity, negative = inhibition” value was inactive: -6.58% [at 102 µM]. For `CC(=O)N1CCc2c(sc3c2c(=O)n(Cc2ccccc2)c(=O)n3Cc2ccccc2Cl)C1`, the Potency was inconclusive: 11.2 µM [inhibitor, partial curve]. With `COc1cccc(NC2=Nc3cccc4cccc2c34)c1` the Potency was inconclusive: 25.1 µM [inhibitor, single point]. `Cc1ccc(/C=C/c2onc(C)c2S(=O)(=O)N2CCC(C(=O)N3CCN(c4cc(C)ccc4C)CC3)CC2)cc1` was tested, and the “activity, negative = inhibition” value was inactive: 10.8%. For `COC(=O)c1cc(N=C(N)N=C(N)N)cc(C(=O)OC)c1`, the “activity, negative = inhibition” value was inactive: 1.65% [at 102 µM]. For `O=C1C(=O)N(CCN2CCOCC2)C(c2ccncc2)/C1=C(/O)c1ccc2c(c1)OCO2` (stereo not given), the Potency was inconclusive: 39.8 µM [inhibitor, single point]. For `S=C(NCCc1ccccc1)NCC(c1ccco1)N1CCCCC1` (stereo not given), the Potency was inconclusive: 89.1 µM [inhibitor, single point]. With `Fc1cccc(F)c1/C=C/c1ccc2ccccc2n1` the Potency was inconclusive: 5.01 µM [inhibitor, full curve]. With `COc1ccccc1NC(=O)Nc1nc(CC(=O)NC2CCCC2)cs1` the Potency was inconclusive: 79.4 µM [inhibitor, partial curve, poor fit]. With `COc1cc(C=C(c2nc3ccccc3s2)c2nc3ccccc3s2)cc(OC)c1O` the Potency was active: 6.31 µM. For `CC(=O)N(c1ccc2oc(=O)sc2c1)S(=O)(=O)c1cccs1`, the Potency was inconclusive: 5.62 µM [inhibitor, single point]. For `CC1CCN(S(=O)(=O)c2ccc3c(c2)N(CC(=O)NC(C)(C)C)C(=O)CS3)CC1`, the “activity, negative = inhibition” value was inactive: -16.6%. With `CCCCC1=CC2=CC(=O)C(C)(OC(=O)C3CCCC3)C(=O)C2=CO1` (stereo not given) the Potency was inconclusive: 31.6 µM [inhibitor, single point]. `CC1(C(=O)CSc2nc3ccccc3[nH]2)CCC(=O)O1` (stereo not given) was tested, and the Potency was inconclusive: 4.47 µM [inhibitor, full curve, poor fit]. `COc1ccc2[nH]c(=O)c(CN(CCN3CCCC3)C(=O)Nc3ccccc3Cl)cc2c1` was tested, and the Potency was active: 50.1 µM. In the case of `Cc1ccc(NC(=S)NC(=O)c2ccc(F)cc2)cc1S(=O)(=O)Nc1cccc(Cl)c1`, the Potency is reported as inconclusive: 4.47 µM [inhibitor, full curve, poor fit]. In the case of `CC1CN(C(=O)N2CCC(C(=O)NCc3cccs3)CC2)c2ccccc2O1` (stereo not given), the “activity, negative = inhibition” value is reported as inactive: 5.28%. `CCCN1C(=O)C(O)(CC(=O)c2ccc3c(c2)OCCO3)c2ccccc21` (stereo not given) was tested, and the “activity, negative = inhibition” value was inactive: -27.4% [at 102 µM]. For `NC(=O)C1CCN(C(=O)c2ccco2)CC1`, the Potency was inconclusive: 31.6 µM [inhibitor, single point]. With `CCC(=O)Nc1cccc(NC(=S)NC(=O)c2ccccc2)c1` the Potency was inconclusive: 39.8 µM [inhibitor, single point]. With `O=C(Nc1ccc2ccccc2c1)c1ccc2[nH]c(=O)c(=O)[nH]c2c1` the Potency was inconclusive: 5.62 µM [inhibitor, partial curve, poor fit]. `CCCCN(CC)C(=O)CSc1nc2ccccc2c(=O)n1Cc1ccco1` was tested, and the “activity, negative = inhibition” value was inactive: -4.78%. With `Cc1ccc(N=N/C(=C\O)C(=O)c2ccncc2)cc1` the Potency was inconclusive: 39.8 µM [inhibitor, single point]. In the case of `CCOc1ccc(CN2CCC(C(=O)Nc3cccc(-c4ccn[nH]4)c3)CC2)cc1Cl`, the Potency is reported as inconclusive: 28.2 µM [inhibitor, partial curve, poor fit]. `O=C(O)c1ccccc1CSc1nc2ccccc2s1` was tested, and the Potency was active: 10 µM. In the case of `O=c1cc(-c2ccc([N+](=O)[O-])cc2)nc2cc(-c3ccc(Cl)cc3)[nH]n12`, the Potency is reported as inconclusive: 5.62 µM [inhibitor, full curve, poor fit]. `COc1ccc(NC(=O)Cc2ccc(C)cc2)c([N+](=O)[O-])c1` was tested, and the Potency was inconclusive: 31.6 µM [inhibitor, single point]. For `COc1ccc(OCc2cc(C(=O)N3CCOCC3)no2)c(Cl)c1`, the “activity, negative = inhibition” value was inactive: 12.5% [at 102 µM]. In the case of `CCOC(=O)c1ccccc1NC(=O)CSc1cn(CC(=O)N2CCCCCC2)c2ccccc12`, the “activity, negative = inhibition” value is reported as inactive: -18.1%. In the case of `O=C(COC(=O)c1ccc([N+](=O)[O-])s1)Nc1ncc(C(F)(F)F)cc1Cl`, the Potency is reported as inconclusive: 25.1 µM [inhibitor, single point]. `O=C(O)c1ccc(Cl)c(S(=O)(=O)Nc2ccc(OCc3ccccc3)cc2)c1` was tested, and the Potency was active: 39.8 µM. With `CN(C)c1ccc(-c2cncnc2Nc2ccccc2)cc1` the activity, negative = inhibition was inactive: 1.05% [at 0.501 µM]. `Cc1cccc2cc3c(N)c(C(=O)N4CCc5ccccc54)sc3nc12` was tested, and the Potency was active: 1.41 µM. In the case of `O=C(NCCc1ccc(Cl)cc1)C1CCN(S(=O)(=O)N2CCCC2)CC1`, the Potency is reported as inconclusive: 89.1 µM [inhibitor, single point]. In the case of `CCc1ccc(NC(=O)CCCc2nnc3n(C(C)CC)c(=O)c4sccc4n23)cc1` (stereo not given), the “activity, negative = inhibition” value is reported as inactive: 1.96%. `COc1ccc(OC)c(C2c3c(oc4ccccc4c3=O)C(=O)N2CCCN(C)C)c1` (stereo not given) was tested, and the Potency was inconclusive: 50.1 µM [inhibitor, partial curve]. With `Cc1cc(C)c(S(=O)(=O)Nc2cc(C)on2)c(C)c1` the “activity, negative = inhibition” value was inactive: 24.8% [at 102 µM]. In the case of `O=C(O)c1ccc(Cl)c(S(=O)(=O)Nc2ccccc2Cc2ccccc2)c1`, the Potency is reported as active: 79.4 µM. With `CN(C)c1ccc(C2=NOC(CN3C(=O)c4ccccc4S3(=O)=O)C2)cc1` (stereo not given) the Potency was inconclusive: 31.6 µM [inhibitor, single point]. In the case of `CCn1c(SCc2ccccc2)nc2c(c1=O)SCC2`, the Potency is reported as inconclusive: 39.8 µM [inhibitor, partial curve, poor fit]. With `COc1ccccc1Oc1ccc(N/C=C/C(=O)c2ccco2)cc1` the Potency was inconclusive: 12.6 µM [inhibitor, partial curve]. For `Fc1ccccc1-c1n[nH]c(=S)n1C1CC1`, the Potency was active: 8.91 µM. For `COc1cccc(OCC(O)CN2CCN(CCN3C(=O)c4cccc5cccc(c45)C3=O)CC2)c1` (stereo not given), the Potency was active: 50.1 µM. With `O=C(Oc1ccc2c(=O)c(Oc3ccc4ccccc4c3)coc2c1)c1ccco1` the Potency was inconclusive: 39.8 µM [inhibitor, single point]. In the case of `COc1ccc2c(CNCc3cccs3)c(C(=O)O)n(Cc3cccc(F)c3)c2c1`, the Potency is reported as inconclusive: 5.01 µM [inhibitor, partial curve, poor fit]. For `COc1cc(C2C(=O)N(C3CCCC3)CC(=O)N2Cc2ccco2)ccc1OC(C)C` (stereo not given), the Potency was active: 79.4 µM. `N#CCC(=O)Nc1ccc(C(=O)OCC(=O)C23CC4CC(CC(C4)C2)C3)cc1` was tested, and the “activity, negative = inhibition” value was inactive: -5.04% [at 102 µM]. `COc1ccc(NC(=S)N2CCCN(Cc3cccc(Cl)c3)C2)cc1` was tested, and the “activity, negative = inhibition” value was inactive: 12.1%. `CCn1c(SCC(=O)NC2CCCC2)nnc1-c1c[nH]c2ccccc12` was tested, and the “activity, negative = inhibition” value was inactive: 4.76%. In the case of `Cc1ccc(OCC(=O)NC(=S)Nc2ccccn2)c(Br)c1`, the Potency is reported as inconclusive: 89.1 µM [inhibitor, single point]. For `COc1ccc(-c2csc(NS(=O)(=O)c3ccc([N+](=O)[O-])cc3)n2)cc1`, the Potency was inconclusive: 35.5 µM [inhibitor, single point]. In the case of `O=c1oc(-c2ccccc2NS(=O)(=O)c2ccc(F)cc2)nc2ccccc12`, the Potency is reported as inconclusive: 50.1 µM [inhibitor, partial curve, poor fit]. For `O=C(NCCc1ccc(C(F)(F)F)cc1)C1COc2ccccc2O1` (stereo not given), the Potency was inconclusive: 79.4 µM [inhibitor, single point]. For `N#Cc1nc(COc2ccc(-c3ccccc3)cc2)oc1NCc1cccnc1`, the Potency was inconclusive: 22.4 µM [inhibitor, single point].

Reference: PubChem BioAssay AID504332 (National Center for Advancing Translational Sciences (NCATS), 2011)
Further: nearly all actives have a fitted effect of over 75% in size.
On the % scale 0 is the no-effect control and ±100 the full control effect; potency means the concentration at half of the fitted maximal effect; tags describe the fitted curve by direction and shape.
